Laboratory results reported in PubChem BioAssay AID504339 (National Center for Advancing Translational Sciences (NCATS), 2011).
Hit rate of the full screen: of about 390,000 compounds, about 17,000 (4.4%) were called active. This list was built around the results that the source calls inconclusive (neither active nor inactive); the mix of calls is not that of the screen. Calls follow the shape of the dose curve; as a rule, active = well fitted inhibition curve with a large enough effect; inconclusive = small, poorly fitted or top-dose-only effect; inactive = no such curve, though single readings can be large or run the other way. Where the call is inconclusive, the potency comes from a doubtful curve fit.

The molecules below were run against Lysine-specific demethylase 4A (Homo sapiens) (UniProt O75164) (assay: qHTS Assay for Inhibitors of JMJD2A-Tudor Domain). Settings: AlphaScreen JMJD2A-Tudor / H3K4me3 peptide binding; activity change, negative = inhibition: at 114 µM (top of the series).
Chain of UniProt O75164 (O75164 whole entry, looked up, the tested form may be a part): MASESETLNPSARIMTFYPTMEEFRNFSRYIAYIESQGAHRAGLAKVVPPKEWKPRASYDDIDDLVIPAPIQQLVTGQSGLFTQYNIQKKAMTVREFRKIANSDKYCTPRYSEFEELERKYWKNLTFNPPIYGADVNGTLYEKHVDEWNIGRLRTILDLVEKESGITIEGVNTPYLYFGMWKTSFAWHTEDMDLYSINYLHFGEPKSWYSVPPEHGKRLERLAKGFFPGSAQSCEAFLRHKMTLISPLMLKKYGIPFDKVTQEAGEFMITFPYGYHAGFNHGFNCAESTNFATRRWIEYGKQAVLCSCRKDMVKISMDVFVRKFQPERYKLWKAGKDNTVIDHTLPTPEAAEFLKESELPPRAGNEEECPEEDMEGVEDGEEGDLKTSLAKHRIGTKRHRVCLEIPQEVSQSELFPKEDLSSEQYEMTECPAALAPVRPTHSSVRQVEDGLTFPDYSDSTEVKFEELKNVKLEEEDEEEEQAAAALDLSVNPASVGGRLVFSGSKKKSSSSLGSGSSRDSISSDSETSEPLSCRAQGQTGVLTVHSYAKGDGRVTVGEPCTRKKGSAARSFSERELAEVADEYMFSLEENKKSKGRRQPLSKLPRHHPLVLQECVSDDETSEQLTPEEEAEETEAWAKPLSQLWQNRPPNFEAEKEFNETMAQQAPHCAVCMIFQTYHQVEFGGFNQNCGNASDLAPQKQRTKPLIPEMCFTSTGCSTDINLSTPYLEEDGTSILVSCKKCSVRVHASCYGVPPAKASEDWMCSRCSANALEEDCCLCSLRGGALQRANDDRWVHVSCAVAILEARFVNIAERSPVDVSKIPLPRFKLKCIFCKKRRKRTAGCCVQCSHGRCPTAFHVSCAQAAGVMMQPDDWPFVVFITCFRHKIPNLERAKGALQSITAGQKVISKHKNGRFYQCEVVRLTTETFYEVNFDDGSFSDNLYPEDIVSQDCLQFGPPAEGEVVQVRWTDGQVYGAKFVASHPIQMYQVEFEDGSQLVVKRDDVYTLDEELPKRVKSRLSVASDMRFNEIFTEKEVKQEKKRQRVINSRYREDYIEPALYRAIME
% is scaled to controls: 0 for no effect and ±100 for the full control effect; potency is read from the fitted curve at half-maximal effect; tags tell the direction and shape of the fitted curve.
Also: nearly all actives have a fitted effect of over 50% in size.

| Structure (SMILES) | Potency | activity change, negative = inhibition |
| --- | --- | --- |
| CCC(C)NCCOCCOc1ccc(Cl)c(C)c1C (stereo unspecified) | active: 3.55 µM | – |
| Cc1cc(=S)nc(-c2ccccn2)[nH]1 | inconclusive: 89.1 µM [inhibitor, single point] | – |
| Cc1cc(C(F)(F)F)nc(SCCN2CCCCC2)c1C#N | inactive | – |
| CCOc1ccc(/C=C(\C#N)C(=O)c2c(C)[nH]c3ccccc23)cc1OC | inconclusive: 22.4 µM [inhibitor, full curve] | – |
| CC(NC(=S)NCCc1ccccc1)C(c1cccs1)N1CCN(Cc2ccccc2)CC1 (stereo unspecified) | inconclusive: 50.1 µM [inhibitor, partial curve] | – |
| O=[N+]([O-])c1ccc(S(=O)Cc2ccccc2)c([N+](=O)[O-])c1 (stereo unspecified) | inconclusive: 79.4 µM [inhibitor, partial curve] | – |
| O=[N+]([O-])c1ccc(F)cc1Oc1nc(-c2cccnc2)nc2ccccc12 | inconclusive: 50.1 µM [inhibitor, partial curve] | – |
| CC(/C=C1\SC(=S)N(NC(=O)c2ccccc2C)C1=O)=C\c1ccccc1 | inconclusive: 39.8 µM [inhibitor, partial curve] | – |
| COc1cccc(/C=N/NC(=O)C(C)Cn2cnc3ccccc32)c1 (stereo unspecified) | inactive | – |
| CN(c1ccccc1)S(=O)(=O)c1cccc(NC(=O)C2=NNC(=O)CC2)c1 | inactive | – |
| Cc1cc(NC(=O)CSc2nnc(C3COc4ccccc4O3)o2)no1 (stereo unspecified) | inactive | – |
| C/C(CCC(C)C)=N\Nc1cc(C)c2ccccc2n1 | inconclusive: 79.4 µM [inhibitor, partial curve] | – |
| CC(C)C[C@H](NC(=O)[C@@H]1Cc2ccccc2CN1C(=O)OC(C)(C)C)C(=O)NCC1CCC(C(=O)O)CC1 (stereo partly specified) | inactive | – |
| COC(=O)c1ccc(NC(=O)C(=O)NCCc2csc(-c3ccc(F)cc3)n2)cc1 | inactive | – |
| O=C(O)COc1ccccc1/C=N/Nc1ccc(S(=O)(=O)N2CCOCC2)cc1[N+](=O)[O-] | inconclusive: 25.1 µM [inhibitor, full curve, poor fit] | – |
| CCCCNc1c(-c2ccc(OC)c(Sc3ccc(OC)cc3)c2)nc2cnccn12 | inconclusive: 79.4 µM [inhibitor, partial curve] | – |
| N#CC(C#N)=C(Nc1ccc(F)cc1)SCc1cccc(Br)c1 | inconclusive: 44.7 µM [inhibitor, single point] | – |
| COc1ccc(N2CCN(Cc3nc4c(c(=O)[nH]c(=O)n4C)n3CCCc3ccccc3)CC2)cc1 | inconclusive: 50.1 µM [inhibitor, partial curve] | – |
| CCOc1ccc(-c2cc3c(=O)n(CC(=O)NCc4ccc(F)cc4)ccn3n2)cc1 | inactive | – |
| COc1cccc(NCc2ccc([N+](=O)[O-])s2)c1 | inconclusive: 28.2 µM [inhibitor, full curve] | – |
| C=CCn1c(=S)[nH]c2nc3c(cc2c1=O)COC(C)(C)C3 | inconclusive: 79.4 µM [inhibitor, partial curve] | – |
| CC(=NNC(=S)Nc1ccccc1Cl)c1ccccn1 | active: 56.2 µM | – |
| Cc1cccc(C)c1NC(=O)c1cc(S(=O)(=O)N2CCc3ccccc3C2)ccc1F | inactive | – |
| CC(C)CCC(C(=O)NC(C)c1ccccc1)C(=O)NC(C)c1ccccc1 (stereo unspecified) | active: 22.4 µM | – |

| Structure (SMILES) | Potency | activity change, negative = inhibition |
| --- | --- | --- |
| COCCNC(=O)CS(=O)Cc1nc(-c2ccc(OC)cc2)oc1C (stereo unspecified) | inconclusive: 63.1 µM [inhibitor, partial curve, poor fit] | – |
| Cc1cc(O)cc(O)c1C(=O)Cc1cnn(-c2ccccc2)c1 | inconclusive: 100 µM [inhibitor, partial curve, poor fit] | – |
| CCC(C)C(NC(=O)OC(C)(C)C)C(=O)NC1COC2CC(n3ccc(=O)[nH]c3=O)OC12 (stereo unspecified) | inactive | – |
| CC1(C)CC(=O)c2cnc(NC(=O)Cc3ccc(Cl)cc3)nc2C1 | – | inactive: -17.8% [at 11.4 µM] |
| CCOc1ccc(-c2nnc(SCC(=O)Nc3cccc(C#N)c3)o2)cc1 | inconclusive: 89.1 µM [inhibitor, partial curve] | – |
| c1ccc(CN2CCN(c3nc(-c4ccccc4)nc(-n4ccnc4)n3)CC2)cc1 | inconclusive: 39.8 µM [inhibitor, partial curve] | – |
| COc1ccc(C2C(C(C)=O)=C(O)C(=O)N2C)c(OC)c1 (stereo unspecified) | inconclusive: 89.1 µM [inhibitor, single point] | – |
| CCNC(=O)NC(=O)C(C)Sc1nnc(COc2ccccc2Cl)o1 (stereo unspecified) | inconclusive: 89.1 µM [inhibitor, single point] | – |
| O=S(=O)(c1ccc(Cl)cc1)c1nc(-c2cccs2)oc1N1CCCCC1 | inconclusive: 44.7 µM [inhibitor, partial curve] | – |
| O=C(COc1ccc(F)cc1)N(Cc1cccc(Br)c1)C1CCS(=O)(=O)C1 (stereo unspecified) | inconclusive: 22.4 µM [inhibitor, full curve] | – |
| O=c1cc(SCc2ccccc2)nc[nH]1 | inconclusive: 28.2 µM [inhibitor, partial curve] | – |
| O=C(Nc1cc(Br)c(O)c(Br)c1)c1cccc(NC(=O)c2ccco2)c1 | inactive | – |
| O=C(O)C1Cc2ccccc2CN1S(=O)(=O)c1ccc2ccccc2c1 (stereo unspecified) | active: 50.1 µM | – |
| C/C(=N\NC(=S)NCCc1ccccc1)c1ccc(O)cc1O | inconclusive: 28.2 µM [inhibitor, full curve] | – |
| CCc1cc(=O)oc2cc(C)c(CN3CCCC(C)C3)c(O)c12 (stereo unspecified) | active: 35.5 µM | – |
| NC(=O)c1cccnc1Oc1cccc(Cl)c1 | active: 20 µM | – |
| O=C(CN1CCN(c2ccc(O)cc2)CC1)Nc1cc(S(=O)(=O)N2CCOCC2)ccc1Cl | inconclusive: 25.1 µM [inhibitor, single point] | – |
| O=C(NCc1ccc(F)cc1)C1CCN(S(=O)(=O)N2CCCC2)CC1 | inconclusive: 15.8 µM [inhibitor, single point] | – |
| CC[C@H](C)[C@@H]1NC(=O)c2cc([N+](=O)[O-])cc(F)c2NCCCC[C@@H](C(N)=O)NC(=O)[C@H](CCCCN)NC1=O | inactive | – |
| CCc1nnc(NC(=O)c2sc3nc4cc(C)ccc4cc3c2N)s1 | inconclusive: 50.1 µM [inhibitor, partial curve] | – |
| CCOC(=O)c1cnc2c(ccc3ccccc32)c1Nc1ccc(C(C)=O)cc1 | inactive | – |
| O=C(Nc1ccc(N2CCCC2)c(Cl)c1)c1ccc(Br)o1 | inconclusive: 50.1 µM [inhibitor, partial curve] | – |
| COc1ccc(N=Nc2cc(-c3ccccc3)ccc2O)cc1 | active: 12.6 µM | – |
| CC(c1nc2scc(-c3ccccc3)c2c(=O)[nH]1)N1CCN(CC(=O)NC2CC2)CC1 (stereo unspecified) | inconclusive: 28.2 µM [inhibitor, partial curve] | – |

| Structure (SMILES) | Potency | activity change, negative = inhibition |
| --- | --- | --- |
| Cn1cnc(S(=O)(=O)Nc2cc(C(F)(F)F)ccc2N2CCOCC2)c1 | inconclusive: 20 µM [inhibitor, single point] | – |
| COc1ccc(-c2ccc3c(c2)S(=O)(=O)c2cccc(C(=O)NCc4ccccc4Cl)c2C3=O)cc1OC | inconclusive: 79.4 µM [inhibitor, partial curve] | – |
| CC(C)(C)c1ccc(C(=O)CSc2ncn[nH]2)cc1 | active: 20 µM | – |
| O=C(Nc1ncccc1O)c1ccc(Oc2ccccc2)cc1 | inconclusive: 25.1 µM [inhibitor, partial curve] | – |
| COc1ccccc1N(CC(=O)NC1CCCC1)C(=O)c1oc(C(C)(C)C)cc1C | inconclusive: 79.4 µM [inhibitor, partial curve] | – |
| Cc1nc(NC(=S)NC(=O)COc2ccc(Cl)cc2)ccc1Br | inconclusive: 100 µM [inhibitor, single point] | – |
| Cc1cc(C)c2c(NC(N)=S)n[nH]c2n1 | active: 31.6 µM | – |
| O=C(N/N=C/c1ccc([N+](=O)[O-])o1)C(=O)Nc1ccc(C(=O)O)cc1 | inactive | – |
| COc1cc(-c2nc3sccn3c2Nc2c(C)cccc2C)ccc1O | active: 56.2 µM | – |
| O=c1[nH]c(=S)[nH]c2nc[nH]c12 | inconclusive: 39.8 µM [inhibitor, single point] | – |
| C[C@@H]1CN([C@H](C)CO)C(=O)c2cc(NC(=O)Nc3cccc4ccccc34)ccc2O[C@H]1CN(C)Cc1ccc(C(F)(F)F)cc1 | inconclusive: 35.5 µM [inhibitor, full curve] | – |
| CCN1C(C(=O)c2ccccc2)=C(OC(=O)COc2ccc(C)cc2)c2ccccc2S1(=O)=O | active: 50.1 µM | – |
| O=C(Nc1cc(N2CCOCC2)ncn1)NC1(C(F)(F)F)Oc2ccccc2O1 | active: 89.1 µM | – |
| O=C(c1ccc2c(Cl)c3c(nc2c1)CCCC3)N1CCN(c2ccc(Cl)cc2)CC1 | inconclusive: 89.1 µM [inhibitor, partial curve] | – |
| NC(=S)Nc1ccccc1Br | inactive | – |
| Cc1cc(=O)[nH]c(NN=Cc2cc(Br)ccc2O)n1 | active: 79.4 µM | – |
| COc1ccc(N2CCN(CCCNC(=O)C3COc4ccccc4C3)CC2)cc1 (stereo unspecified) | inconclusive: 44.7 µM [inhibitor, partial curve] | – |
| O=C(Nc1nc2c(F)cc(F)cc2s1)c1ccc(S(=O)(=O)N2CCc3ccccc32)cc1 | inactive | – |
| O=C(NC1=C(NC2CCS(=O)(=O)C2)C(=O)c2ccccc2C1=O)c1ccccc1 (stereo unspecified) | inconclusive: 50.1 µM [inhibitor, partial curve] | – |
| N=C1/C(=C\c2ccc(-c3ccc(C(=O)O)cc3)o2)C(=O)N=C2SC=C(c3ccccc3)N12 | active: 14.1 µM | – |
| Cc1ccc(C(=O)NC(=S)/C=C2\N(C)c3ccccc3C2(C)C)cc1 | active: 22.4 µM | – |
| COC(=O)C1=C(C)N(CC2CCCO2)C(=O)/C1=C\c1ccc(O)cc1 (stereo unspecified) | active: 35.5 µM | – |
| CCOCCc1nnc(NC(=O)C(=O)c2cc(C)n(-c3ccc(C)cc3C)c2C)s1 | inconclusive: 56.2 µM [inhibitor, partial curve, poor fit] | – |
